Laboratory results from the RNAGym collection of RNA variant scans (doi:10.1073/pnas.2313332121).
This sample is rich in variants without activity.

B1: TPR 5TU (parent)
chain: GGAUCUUCUCGAUCUAACAAAAAAGACAAAUCUGCCACAAAGCUUGAGAGCAUCUUCGGAUGCAGAGGCGGCAGCCUUCGGUGGCGCGAUAGCGCCAACGUUCUCAACUAUGACACGCAAAACGCGUGCUCCGUUGAAUGGAGUUUAUCAUG

Variants of: B1
Experiment: polymerase ribozyme fitness, log enrichment relative to wild type (log ratio); higher = more active; in vitro selection for triplet polymerase activity
Method in brief: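 Streptavidin-bead capture of gel-excised extended constructs, followed by RT-PCR, closed a single triplicate in vitro selection round. That round began by annealing PCR-built, transcribed mutant libraries of each subunit of a heterodimeric triplet polymerase ribozyme with a biotinylated primer, the partner subunit and triplets, then incubating them frozen at −7 °C. After Illumina sequencing of inputs and outputs, genotypes needed ≥10 input reads and ≥1 read per output. Fitness is the base-2 logarithm of genotype enrichment over wild-type enrichment, using inverse-variance-weighted replicate averages.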

Row | Variant | polymerase ribozyme fitness (log ratio)
1 | G58U G141C | 0.501
2 | G59A A60G | -0.0653
3 | U61A G94C C99G U102G A115U | ≤ -4.2
4 | G65A C85G A150C | ≤ -4.2
5 | G62C C63A C116G | -1.77
6 | A60C C76U A91U C93U A106G C125G | ≤ -4.2
7 | A60C C108G C123A A142G | ≤ -4.2
8 | A60G C105G U145G | -1.64
9 | G58U U61G C63U G74C G141C | ≤ -4.2
10 | G59A G62U C85U A91C | ≤ -4.2
11 | A64U U77A G83A C114G A120G | ≤ -4.2
12 | G62A C85A A121U U134C A137G | -3.02
13 | A60G C93G | -3.44
14 | U61C C96A A121G | -2.74
15 | G59C G67C C87U C118A A119U | ≤ -4.2
16 | G58C G59C C96U C131A | -4.15
17 | G59U A91U C95U G140U | ≤ -4.2
18 | G62C C114G A119C C125G | ≤ -4.2
19 | A60G G94A | 0.0761
20 | G59U C69G G88C C125A | ≤ -4.2
21 | U61A C95U | -0.916
22 | G58U C69A U111C G124U U139C | ≤ -4.2
23 | G58C C116U U134C G141A U151G | ≤ -4.2
24 | A60U U61A A142C | -3.49

Row | Variant | polymerase ribozyme fitness (log ratio)
25 | C63U A73U U109C A122G A142G | ≤ -4.2
26 | C63G C72A U90C | ≤ -4.2
27 | A64C G65A G84U C116G U139C | ≤ -4.2
28 | C63U U148C | -1.65
29 | A60U U130G G143C | ≤ -4.2
30 | C63U G71A C85G G100U | ≤ -4.2
31 | G58U G84A U90G | ≤ -4.2
32 | G62U G94U C96U | -3.88
33 | G62A C69U | -2.82
34 | G59C A66U C85U | ≤ -4.2
35 | G59C A91U C93A A106C A138G | ≤ -4.2
36 | U61A A91U | ≤ -4.2
37 | G58U C85A C95A | ≤ -4.2
38 | A60G G84A C118A | -0.875
39 | G58C G86A C123A G124C C125G A138C | ≤ -4.2
40 | G59C C63U A138U G141A | ≤ -4.2
41 | G59U C99U C132U | -1.59
42 | G59A C87A | ≤ -4.2
43 | G59A C87G | ≤ -4.2
44 | G59C A107U G143U | ≤ -4.2
45 | C63G A66G G71A G74U U135G G143C | ≤ -4.2
46 | A60G G68U C85A G94A A147C | ≤ -4.2
47 | U61A G74U U139A | ≤ -4.2
48 | G59A C87G G140C | ≤ -4.2

Row | Variant | polymerase ribozyme fitness (log ratio)
49 | A60G C99G C105U A107G C129U | ≤ -4.2
50 | A64G A137G | ≤ -4.2
51 | G65A U77A U90C C103A | ≤ -4.2
52 | A60G U78A A106G C118U | ≤ -4.2
53 | U61A C75U C87G | ≤ -4.2
54 | G58C G84A G112U | ≤ -4.2
55 | A60U U78C C87U A98C U104C C114G A115G U139G | ≤ -4.2
56 | G62A U82C C95A U101C U148A | ≤ -4.2
57 | A60G A150G | -0.0266
58 | U61A G83U C93A U144G | ≤ -4.2
59 | A60G C87G | ≤ -4.2
60 | U61A C96G | -2.6
61 | A60G A73U C93U | -1.38
62 | A64G G81A G84A G86A | ≤ -4.2
63 | A64U C96U C105G A107U C125U G133A G140U G152C | ≤ -4.2
64 | G59A A97U A122G G128A | ≤ -4.2
65 | G59U G74U C75A G88C | ≤ -4.2
66 | A60C C85A C125G U144G | -2.67
67 | U61A C85U | -1.28
68 | A64G G71C G141A | ≤ -4.2
69 | G59C A89U C93G C108U G117U A122U U135G A147C | ≤ -4.2
70 | U61C G67U U77G | ≤ -4.2
71 | G58U U61A U90A A142G | ≤ -4.2
72 | A60G G71A A106U | ≤ -4.2

Row | Variant | polymerase ribozyme fitness (log ratio)
73 | A64C C85G A137U | ≤ -4.2
74 | G62C C95U C96A | -3.59
75 | A60G C75A C95U C114U A150C | ≤ -4.2
76 | G59U C75A C87G G88A C103U A121U | ≤ -4.2
77 | A60C C93A U102G C108G | ≤ -4.2
78 | U61G C75A C87G A113U A119C C149U | ≤ -4.2
79 | A60C C85G G86A A89U A110G U135G U144G | ≤ -4.2
80 | G58U U151C | ≤ -4.2
81 | A60G G70C A89C | -3.24
82 | A60G G67U C93U C99U C129U | ≤ -4.2
83 | C63U A66C C93A G94A C108G G117U | ≤ -4.2
84 | U61G C75U C114U A119U G143U | ≤ -4.2
85 | G59C U61A | -1.51
86 | C63A C75U C85G U101G G140U U146C | ≤ -4.2
87 | G58U G128U | -3.02
88 | G59A C118G U130A C132G G140A | ≤ -4.2
89 | G59A A66C G88A U134A G143C A147U U151A | ≤ -4.2
90 | U61G G67U U90A A120G | ≤ -4.2
91 | C63G A91G | -2.57
92 | C63U U90G C95G A121U G126A | ≤ -4.2
93 | U61G C63G G74U A91G C118A | ≤ -4.2
94 | G59C G126A | 0.0741
95 | A60C C87A A98U | ≤ -4.2
96 | A64G G67C G84U G124U U148C | ≤ -4.2

Row | Variant | polymerase ribozyme fitness (log ratio)
97 | G59A G86U A119U G140U | -3.26
98 | A64U A66C C75G G88A | ≤ -4.2
99 | G59U G68A G83A A89U G94U G128U | ≤ -4.2
100 | G59U G68C C85A | ≤ -4.2
101 | U61A G67A A106G | ≤ -4.2
102 | A64U U82A U90C | ≤ -4.2
103 | G65A G70U C93U U146G | ≤ -4.2
104 | U61C C99A G128A | ≤ -4.2
105 | G59C G100A A115C U144C | ≤ -4.2
106 | U61A C129U | -3.55
107 | G58C U77A A120U A122G | ≤ -4.2
108 | A64U G94U C149U | ≤ -4.2
109 | U61G G62C C76A C87G G140C | ≤ -4.2
110 | A60G U102A U109G A115C | -3.77
111 | A64G G68A G92U C93G G140A U144A | ≤ -4.2
112 | G59C A120U A122C A147G | -1.22
113 | U61A G88A | ≤ -4.2
114 | U61A G88U | ≤ -4.2
115 | U61G C76G C123U | ≤ -4.2
116 | A64U G92A G117C U145A | ≤ -4.2
117 | A64G A91C U146G | ≤ -4.2
118 | G59A C76A A113G A121G | ≤ -4.2
119 | G65A C69A A107U | ≤ -4.2
120 | A60G A64C G70A C93U A113U C116G U139G | ≤ -4.2

Row | Variant | polymerase ribozyme fitness (log ratio)
121 | A60U G88U A89U C96U U102G C132U | ≤ -4.2
122 | G58C U144C | 0.128
123 | G59C U61A A64G G70C A107C A110U A113U | ≤ -4.2
124 | A60U C99U A106C A107G U139A A150G | ≤ -4.2
125 | A60G G84U G86A G128U A138G | ≤ -4.2
126 | U61A G80A G86U G112C G124A A137G | ≤ -4.2
127 | U61A C93G C96U G124U A138C | ≤ -4.2
128 | A60C U61A C87A U104A A147U | ≤ -4.2
129 | A60C C75U A91U G141A U146A | ≤ -4.2
130 | U61A A73U U77G G88C A119U A137G U144A | ≤ -4.2
131 | U61G G74U G83A | ≤ -4.2
132 | C63G G65C C93G A137C A142U | ≤ -4.2
133 | G65A C108G C125U | ≤ -4.2
134 | A60C G83U A121U | -2.35
135 | A60U G94A U135G U139C | ≤ -4.2
136 | G59A C85U | -1.79
137 | G59U C76U C105A A113U C116U | ≤ -4.2
138 | A60G C75A G83C G117U | ≤ -4.2
139 | G59A C99A G140U | -3.99
140 | G59A A60C U90G | ≤ -4.2
141 | U61G G80A C93G | ≤ -4.2
142 | U61G G68A | ≤ -4.2
143 | G59A A115G G140A | ≤ -4.2
144 | G62C C85A C87G G117A | ≤ -4.2

Row | Variant | polymerase ribozyme fitness (log ratio)
145 | G59A | -0.0739
146 | A64U C87U A98G | ≤ -4.2
147 | C63U A115G A150C | ≤ -4.2
148 | G65A G67U U82G A98G | ≤ -4.2
149 | A60G G81A A97U C99U | -1.35
150 | C63U G81C U104G C105G | ≤ -4.2
151 | G59A C132G U139C | -2.96
152 | G59A A60G C85U C118G A122C U127G | ≤ -4.2
153 | U61C C125U C129G | ≤ -4.2
154 | G58C G92A A106U U127C G133A | ≤ -4.2
155 | G65A U78A A120U | ≤ -4.2
156 | A60U C132U | -0.719
157 | G62A G140A | -3.95
158 | G59U C75A C79U C85A A98G A115G U135G | ≤ -4.2
159 | G59C G74A G80C U127G A142G | ≤ -4.2
160 | U61A C79G | ≤ -4.2
161 | G59U C87A C103U U104G A107U U144A | ≤ -4.2
162 | A60U U77A | ≤ -4.2
163 | A64C G71A A107G G141C | ≤ -4.2
164 | G58U G81A C93A C103G A137G | ≤ -4.2
165 | G58U A64G G68A | ≤ -4.2
166 | G58C G70A C93U C95U A142G U144A | ≤ -4.2
167 | C63G A91C C93G U134C | ≤ -4.2
